This note sets out measurements from ChEMBL document CHEMBL4888484, “Replenishing the malaria drug discovery pipeline: Screening and hit evaluation of the MMV Hit Generation Library 1 (HGL1) against asexual blood stage Plasmodium falciparum ,using a nano luciferase reporter read-out” (2022).

Molecules are shown by their SMILES. About 540 (0.36%) of roughly 150,000 compounds showed an effect of 50% or more. Some of the results follow.

For the test, the system named is Plasmodium falciparum. Briefly: Primary screen in NF54 nanoGlo assay, in single point, at 2uM, 72h; a lower Z score goes with more inhibition. In kind it is functional, Erythrocyte. Conditions: timepoint 72 hour.
Turning to `CC1CN(S(=O)(=O)c2cccc(C(=O)NC3CCCc4ccccc43)c2)CC(C)O1` (stereo not drawn), the “% Inhibition” value is listed as -2% and the Z score is on record as 0.33.
For `Oc1cncc(-c2cccc(C(F)(F)F)c2)n1`, the “% Inhibition” value is given as -11% and the Z score is 1.38.
The like results for `CCCCOc1ccc(CN)cc1OCC` were, in that order, -5% and 0.68.
The like results for `CN=C(NCc1ccccc1)N(C)Cc1ccccc1` were, in that order, -6% and 0.78.
The matching figures for `CCN1C[C@H](CN(C)C(=O)Nc2nc3ccccc3s2)Oc2ccccc21`: -8% and 0.94.
For the compound `CC[C@H](NC(=O)OC(C)(C)C)c1nc(-c2ccsc2)no1`, the “% Inhibition” value is listed as -4% and the Z score turned out to be 0.3.
The matching figures for `O=S(=O)(CC1CCOCC1)N[C@H]1CCOc2ccc(F)cc21`: 1% and -0.16.
The like results for `CN(C)c1ncnc2cc(C(=O)Nc3ccc(F)c(Cl)c3)ccc12` were, in that order, 9% and -1.37.
The matching figures for `Cc1cccc(N(C)S(=O)(=O)CCCS(=O)(=O)N(C)C)c1`: -1% and 0.07.
Turning to `Cc1cccc(N2CCC(n3cnc4cn(C)nc4c3=O)CC2)c1`, the “% Inhibition” value was -3% and the Z score worked out at 0.61.
The like results for `CN(C)c1n[nH]c(NC(=O)c2ccc(OC(F)F)cc2F)n1` were, in that order, -8% and 1.26.
The like results for `CC(C)(CC(=O)NC1(CO)CCOCC1)CC(=O)c1ccccc1` were, in that order, -1% and 0.16.
The like results for `CS(=O)(=O)N(CCN1CCCCC1)C1CN(C(=O)c2ccc(F)c(F)c2)C1` were, in that order, -15% and 1.97.
For the compound `Cc1cc(CN2CCN(C(=O)c3c(C)c(C)n[nH]c3=O)CC2)on1`, the “% Inhibition” value is listed as -2% and the Z score worked out at 0.25.
In the case of `CCCc1nc(-c2cc3cc(C)ccc3nc2NCc2ccc(OC)cc2)no1`, the “% Inhibition” value is -3% and the Z score stood at 0.5.
For `COc1ccc(N2C(=O)CN(Cc3ccccc3F)[C@H]3CS(=O)(=O)C[C@H]32)cc1Cl`, the “% Inhibition” value was -1% and the Z score is reported as 0.11.
The matching figures for `COc1ccc(C(=O)NCC#CCN(C(C)C)C(C)C)cc1OC`: -4% and 0.71.
The matching figures for `CN(C[C@H]1CCCCN1C)C(=O)c1cn[nH]c1`: -10% and 1.32.
As to `COCCN(Cc1cccc(O)c1)CC1CCN(Cc2ccccc2F)CC1`, the “% Inhibition” value was -1% and the Z score turned out to be 0.12.
The like results for `COc1ccc(-c2c(NC(=O)c3ccc(F)cc3)n(-c3cccc(C)c3)nc(C)c2=O)cc1` were, in that order, 32% and -3.59.
As to `Cc1nc2ccccc2n1CCNc1ncccc1C#N`, the “% Inhibition” value is listed as -6% and the Z score is 0.79.
Regarding `COc1cccc(CN(C)C(=O)[C@@H]2CCCN2C(=O)c2ccccn2)n1`, the “% Inhibition” value was -2% and the Z score came out at 0.19.
Regarding `O=C(c1c[nH]c(=O)c(Cl)c1)N1CCc2ccccc21`, the “% Inhibition” value is -10% and the Z score was 1.56.
In the case of `Fc1cccc(CCn2ccc(-c3cccc(-c4cnccn4)c3)n2)c1`, the “% Inhibition” value is reported as 0% and the Z score turned out to be 0.06.
